{
  "source": "paper PMC4336329",
  "about": "(PLoS ONE, 2015)",
  "note": "Out of some 310,000 compounds screened, about 2,200 (0.71%) showed an effect of 50% or more. Effects have a minus sign here. This is one part of the list.",
  "data": [
    {"target": "human ether-à-go-go-related gene (hERG) potassium channel (human, UniProt Q12809)", "sequence (Q12809 whole entry, looked up)": "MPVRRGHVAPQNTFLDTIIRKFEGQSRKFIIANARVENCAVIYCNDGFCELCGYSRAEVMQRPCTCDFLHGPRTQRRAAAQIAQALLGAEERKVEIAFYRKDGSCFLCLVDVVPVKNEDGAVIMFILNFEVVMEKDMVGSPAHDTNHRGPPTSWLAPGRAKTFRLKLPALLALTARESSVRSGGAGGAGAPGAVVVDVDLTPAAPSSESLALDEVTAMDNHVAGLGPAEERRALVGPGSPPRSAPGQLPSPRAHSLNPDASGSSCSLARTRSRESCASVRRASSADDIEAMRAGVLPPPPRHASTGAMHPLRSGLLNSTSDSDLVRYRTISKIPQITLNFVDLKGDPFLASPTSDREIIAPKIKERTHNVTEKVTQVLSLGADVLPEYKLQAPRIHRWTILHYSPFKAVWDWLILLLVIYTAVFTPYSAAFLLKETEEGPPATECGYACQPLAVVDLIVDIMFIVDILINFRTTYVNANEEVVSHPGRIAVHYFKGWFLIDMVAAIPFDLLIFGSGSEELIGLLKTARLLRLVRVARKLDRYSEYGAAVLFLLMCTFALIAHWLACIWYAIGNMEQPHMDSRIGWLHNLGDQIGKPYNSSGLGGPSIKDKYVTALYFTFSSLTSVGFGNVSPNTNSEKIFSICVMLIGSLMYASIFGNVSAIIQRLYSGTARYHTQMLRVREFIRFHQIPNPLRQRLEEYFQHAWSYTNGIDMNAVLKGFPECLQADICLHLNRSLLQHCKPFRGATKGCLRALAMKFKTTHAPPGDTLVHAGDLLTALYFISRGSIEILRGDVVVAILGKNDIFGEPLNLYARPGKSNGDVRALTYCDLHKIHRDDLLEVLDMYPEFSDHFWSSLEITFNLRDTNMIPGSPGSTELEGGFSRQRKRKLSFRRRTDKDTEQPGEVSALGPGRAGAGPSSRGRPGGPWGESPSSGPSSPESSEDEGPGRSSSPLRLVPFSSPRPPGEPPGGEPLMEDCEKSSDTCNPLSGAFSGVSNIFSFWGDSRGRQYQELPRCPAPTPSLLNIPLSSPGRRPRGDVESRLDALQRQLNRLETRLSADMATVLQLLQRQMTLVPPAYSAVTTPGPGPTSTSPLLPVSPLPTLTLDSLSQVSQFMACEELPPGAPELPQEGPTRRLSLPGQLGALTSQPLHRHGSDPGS", "assay": "primary screen, population patch clamp on CHO cells stably expressing hERG", "units": {"hERG current change (%, negative = inhibition) at 1uM": "%"}, "values": [
      {"compound": "COC(=O)C(NC(=O)c1ccco1)(Nc1nc(C)cs1)C(F)(F)F", "note": "(stereo not shown)", "hERG current change (%, negative = inhibition) at 1uM": 3.78},
      {"compound": "Cc1ccc(CN(C(=O)N2CCN(C)CC2)S(=O)(=O)c2ccc(C)cc2)cc1", "hERG current change (%, negative = inhibition) at 1uM": 0.555},
      {"compound": "CCCCn1c(N)c(N(CCOC)C(=O)CN2c3ccccc3CC2C)c(=O)[nH]c1=O", "note": "(stereo not shown)", "hERG current change (%, negative = inhibition) at 1uM": 13.7},
      {"compound": "CCC(C)[C@H]1CN=C(N)N1CCCc1cc(OC)c(OC)c(OC)c1", "note": "(stereo partly shown)", "hERG current change (%, negative = inhibition) at 1uM": 10.4},
      {"compound": "COc1ccc(-c2cc(C)no2)cc1S(=O)(=O)N1CCN(c2ccccn2)CC1", "hERG current change (%, negative = inhibition) at 1uM": -12.9},
      {"compound": "Cc1csc(C(=O)O)c1NC(=O)c1ccc(F)cc1", "hERG current change (%, negative = inhibition) at 1uM": 13.5},
      {"compound": "O=S(=O)(Nc1ccc2c(c1)OCO2)c1ccc(F)c(F)c1", "hERG current change (%, negative = inhibition) at 1uM": 2.55},
      {"compound": "CN(C)CCCNS(=O)(=O)c1ccc(Oc2ncc(C(F)(F)F)cc2Cl)cc1", "hERG current change (%, negative = inhibition) at 1uM": -11.6},
      {"compound": "Cc1ccc(S(=O)(=O)NCCSCc2ccco2)cc1", "hERG current change (%, negative = inhibition) at 1uM": 6.43},
      {"compound": "Cc1ccc(S(=O)(=O)N2CCCN(S(=O)(=O)c3ccc(C)cc3)CC2)cc1", "hERG current change (%, negative = inhibition) at 1uM": -5.54},
      {"compound": "O=C1NC2=C(C(=O)CCC2)C(c2ccccc2)N1", "note": "(stereo not shown)", "hERG current change (%, negative = inhibition) at 1uM": 13.2},
      {"compound": "O=C(Nc1ncccc1O)c1ccc2c(c1)OCCO2", "hERG current change (%, negative = inhibition) at 1uM": 15.3},
      {"compound": "COc1ccc(CNC(=O)C(CCSC)NS(=O)(=O)c2ccccc2F)cc1", "note": "(stereo not shown)", "hERG current change (%, negative = inhibition) at 1uM": 10},
      {"compound": "Cc1cc(NC(=O)c2ccc(N3CCCC3)c([N+](=O)[O-])c2)no1", "hERG current change (%, negative = inhibition) at 1uM": 17.5},
      {"compound": "O=[N+]([O-])c1cccc(S(=O)(=O)c2cccc([N+](=O)[O-])c2)c1", "hERG current change (%, negative = inhibition) at 1uM": 9.61},
      {"compound": "COc1ccc(C)cc1S(=O)(=O)N(CC(N)=O)Cc1ccccc1", "hERG current change (%, negative = inhibition) at 1uM": 17.4},
      {"compound": "CC(C)c1nc(C#N)c(NCCCn2ccnc2)o1", "hERG current change (%, negative = inhibition) at 1uM": 19.7},
      {"compound": "O=C(C1=C[C@@H](C2CC2)C[C@@H](OCCCCO)O1)N1CCOCC1", "hERG current change (%, negative = inhibition) at 1uM": 5.01},
      {"compound": "CCCC(=O)Nc1sc(C)c(C)c1C(=O)Nc1cccc(C)c1", "hERG current change (%, negative = inhibition) at 1uM": 14.2},
      {"compound": "C/C(=N\\Nc1ccc(C(=O)c2c(C)cc3ccccn23)cc1[N+](=O)[O-])c1ccc(O)cc1", "hERG current change (%, negative = inhibition) at 1uM": 13.2},
      {"compound": "c1ccc(CNc2cncnc2)cc1", "hERG current change (%, negative = inhibition) at 1uM": 21.1},
      {"compound": "Cc1nn(-c2ccccc2)c(Cl)c1C(=O)N(C)CC(=O)Nc1cccc(F)c1", "hERG current change (%, negative = inhibition) at 1uM": -2.39},
      {"compound": "COc1ccc(Nc2sc(C(=O)Nc3cccc(Cl)c3)c(N)c2C(=O)Nc2ccccc2OC)cc1", "hERG current change (%, negative = inhibition) at 1uM": 0.177},
      {"compound": "CCC(C)(C)NC(=O)C(c1ccc(OC)cc1)N(C(=O)CCC(=O)Nc1cc(C)on1)c1ccccc1F", "note": "(stereo not shown)", "hERG current change (%, negative = inhibition) at 1uM": 9.83},
      {"compound": "O=C(O)CN1C(c2ccccc2)=Nc2ccc(Br)cc2C1c1ccccc1", "note": "(stereo not shown)", "hERG current change (%, negative = inhibition) at 1uM": 9.73},
      {"compound": "O=C1Nc2cc(C(=O)N3CCN(c4ccc(F)cc4)CC3)ccc2NC1CSCc1cccc(F)c1", "note": "(stereo not shown)", "hERG current change (%, negative = inhibition) at 1uM": 13.2},
      {"compound": "O=C(NCC(=O)N1CCN(c2ccccc2F)CC1)c1cccs1", "hERG current change (%, negative = inhibition) at 1uM": 1.44},
      {"compound": "O=C(c1cc(-c2ccccc2)nc2ccccc12)N1CCN(C2CCS(=O)(=O)C2)CC1", "note": "(stereo not shown)", "hERG current change (%, negative = inhibition) at 1uM": -4},
      {"compound": "Cc1ccc(-c2cn3c(=S)[nH]nc3s2)cc1", "hERG current change (%, negative = inhibition) at 1uM": 6.27},
      {"compound": "CSCCC(NS(=O)(=O)c1ccc(C)cc1)C(=O)NC1CCCCC1", "note": "(stereo not shown)", "hERG current change (%, negative = inhibition) at 1uM": 4.42},
      {"compound": "Cc1cccc(CCNC(=O)CCS(=O)(=O)c2ccc(Br)cc2)c1", "hERG current change (%, negative = inhibition) at 1uM": 14},
      {"compound": "C/C(=N\\NC(=O)c1ccc(=O)[nH]n1)c1cccnc1", "hERG current change (%, negative = inhibition) at 1uM": 13.9},
      {"compound": "Cn1c(=O)[nH]c(=O)c2c1nc(CN(Cc1ccccc1)Cc1ccccc1)n2CCN1CCOCC1", "hERG current change (%, negative = inhibition) at 1uM": -4.58},
      {"compound": "CCOc1ccc(C(=O)CCC(=O)NC2=NCCS2)cc1", "hERG current change (%, negative = inhibition) at 1uM": 13.2},
      {"compound": "O=C(CSc1n[nH]c(-c2ccncc2)n1)Nc1ccccc1", "hERG current change (%, negative = inhibition) at 1uM": 16.6},
      {"compound": "CCCCNC(=O)CCCCCn1c(=O)[nH]c2cc(C(=O)OC)ccc2c1=O", "hERG current change (%, negative = inhibition) at 1uM": 10.9},
      {"compound": "Cc1cccc(S(=O)(=O)Nc2ccc(C)c3c2OC(C)(C)C3)c1", "hERG current change (%, negative = inhibition) at 1uM": -0.661},
      {"compound": "Cc1cc(C)c2c(c1)NC(=O)C2(O)CC(=O)c1cccs1", "note": "(stereo not shown)", "hERG current change (%, negative = inhibition) at 1uM": 7.18},
      {"compound": "O=C(NNC(=O)c1ccccc1-n1cccc1)c1ccccc1", "hERG current change (%, negative = inhibition) at 1uM": 1.86},
      {"compound": "O=C(CSc1nnc2sc3ccccc3n12)N1CCN(c2ccccc2)CC1", "hERG current change (%, negative = inhibition) at 1uM": 2.32},
      {"compound": "CC1CN(C(=O)COC(=O)c2cccs2)CC(C)O1", "note": "(stereo not shown)", "hERG current change (%, negative = inhibition) at 1uM": 20.2},
      {"compound": "COC(=O)c1cc(C#N)c(N(C)Cc2ccccc2)nc1C", "hERG current change (%, negative = inhibition) at 1uM": 12.7},
      {"compound": "Cc1cc(NCCCN2CCOCC2)n2ncc(-c3ccccc3)c2n1", "hERG current change (%, negative = inhibition) at 1uM": 3.96}
    ]}
  ]
}
